From paper PMC11264237 (Archives of biochemistry and biophysics, 2024)

Target: T1, GST fused to the ATP8A1 tail (amino acids 1049-1163) (human, UniProt Q9Y2Q0 1049-1163)
T1 sequence (looked up): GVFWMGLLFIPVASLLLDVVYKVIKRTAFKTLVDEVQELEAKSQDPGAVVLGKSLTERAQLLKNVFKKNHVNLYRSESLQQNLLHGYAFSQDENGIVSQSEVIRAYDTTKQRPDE
Experiment: pull-down

B1: GBF1 (natural protein)
chain: not shown
% of total input bound to the beads: 5 % of total input
